Measured values from the supplement of paper PMC4604168 (melanoma cell lines).
The list shows a part of the results. Many values rest on one well or one pass, so single values are uncertain.

tested on: MEL-HO; assay: cell count relative to DMSO control; melanoma cells; higher = more viable cells; settings: library dose: low library concentration; 72 h
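Also: cell number obtained by counting DAPI-stained nuclei in high-throughput microscope images with image analysis software, screen run in 1,536-well plates.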

Q: CNC(=O)c1cc(Oc2ccc(NC(=O)Nc3ccc(Cl)c(C(F)(F)F)c3)cc2)ccn1 [sorafenib] + O=C(Oc1ccc([N+](=O)[O-])cc1)N1CCC(C(O)(c2ccc3c(c2)OCO3)c2ccc3c(c2)OCO3)CC1 [JZL184] (first compound 0.4 µM, partner dose 1 µM) was tested. Which cell count did it give?
A: 99.2%

Q: Which cell count does the source give for CNC(=O)c1cc(Oc2ccc(NC(=O)Nc3ccc(Cl)c(C(F)(F)F)c3)cc2)ccn1 [sorafenib] + C/C(O)=C(\C#N)C(=O)Nc1cc(Br)ccc1Br [LFM-A13] (first compound 0.4 µM, partner dose 2 µM) here?
A: 101%

Q: With CCCS(=O)(=O)Nc1ccc(F)c(C(=O)c2c[nH]c3ncc(Cl)cc23)c1F + O=C(Oc1ccc([N+](=O)[O-])cc1)N1CCC(C(O)(c2ccc3c(c2)OCO3)c2ccc3c(c2)OCO3)CC1 [JZL184] (first compound 0.08 µM, partner dose 1 µM) as the molecule, how does the cell count read?
A: 91.6%

Q: Which cell count does the source give for CCCCCCCCc1ccc(CCC(N)(CO)CO)cc1 [fingolimod] + O=C(Oc1ccc([N+](=O)[O-])cc1)N1CCC(C(O)(c2ccc3c(c2)OCO3)c2ccc3c(c2)OCO3)CC1 [JZL184] (first compound 2 µM, partner dose 1 µM) here?
A: 88.7%

Q: Which cell count does the source give for Cc1cn(-c2cc(NC(=O)c3ccc(C)c(Nc4nccc(-c5cccnc5)n4)c3)cc(C(F)(F)F)c2)cn1 [nilotinib] + O=C(Oc1ccc([N+](=O)[O-])cc1)N1CCC(C(O)(c2ccc3c(c2)OCO3)c2ccc3c(c2)OCO3)CC1 [JZL184] (first compound 0.2 µM, partner dose 1 µM) here?
A: 97.9%

Q: How did the cell count turn out when CN(c1ncccc1CNc1nc(Nc2ccc3c(c2)CC(=O)N3)ncc1C(F)(F)F)S(C)(=O)=O + Cc1cc(SCc2sc(-c3ccc(C(F)(F)F)c(F)c3)nc2C)ccc1OCC(=O)O [GW0742] (first compound 0.08 µM, partner dose 2 µM) was run?
A: 93.6%

Q: For C[C@@H](Oc1cc(-c2cnn(C3CCNCC3)c2)cnc1N)c1c(Cl)ccc(F)c1Cl [Crizotinib] + Cc1cc(SCc2sc(-c3ccc(C(F)(F)F)c(F)c3)nc2C)ccc1OCC(=O)O [GW0742] (first compound 0.2 µM, partner dose 2 µM), which cell count is on record?
A: 92.2%

Q: O=c1[nH]nc(Sc2ncc([N+](=O)[O-])s2)n1-c1ccc2c(c1)OCCO2 + Cc1cc(SCc2sc(-c3ccc(C(F)(F)F)c(F)c3)nc2C)ccc1OCC(=O)O [GW0742] (first compound 0.2 µM, partner dose 2 µM) was tested. Which cell count did it give?
A: 106%

Q: CC[C@]1(O)C[C@H]2CN(CCc3c([nH]c4ccccc34)[C@@](C(=O)OC)(c3cc4c(cc3OC)N(C=O)[C@H]3[C@@](O)(C(=O)OC)[C@H](OC(C)=O)[C@]5(CC)C=CCN6CC[C@]43[C@@H]65)C2)C1 [vincristine] + O=C(Oc1ccc([N+](=O)[O-])cc1)N1CCC(C(O)(c2ccc3c(c2)OCO3)c2ccc3c(c2)OCO3)CC1 [JZL184] (first compound 0.0001 µM, partner dose 1 µM) was tested. Which cell count did it give?
A: 98.1%

Q: With CC(=O)c1c(C)c2cnc(Nc3ccc(N4CCNCC4)cn3)nc2n(C2CCCC2)c1=O [palbociclib] + C/C(O)=C(\C#N)C(=O)Nc1cc(Br)ccc1Br [LFM-A13] (first compound 0.04 µM, partner dose 2 µM) as the molecule, how does the cell count read?
A: 94.2%

Q: How did the cell count turn out when CN(c1ncccc1CNc1nc(Nc2ccc3c(c2)CC(=O)N3)ncc1C(F)(F)F)S(C)(=O)=O + C/C(O)=C(\C#N)C(=O)Nc1cc(Br)ccc1Br [LFM-A13] (first compound 0.08 µM, partner dose 2 µM) was run?
A: 91.1%

Q: O=C(Nc1cc(C(F)(F)F)cc(C(F)(F)F)c1)c1cc(Cl)ccc1O + C/C(O)=C(\C#N)C(=O)Nc1cc(Br)ccc1Br [LFM-A13] (first compound 0.016 µM, partner dose 2 µM) was tested. Which cell count did it give?
A: 98%

Q: N#CC[C@H](C1CCCC1)n1cc(-c2ncnc3[nH]ccc23)cn1 [ruxolitinib] + C/C(O)=C(\C#N)C(=O)Nc1cc(Br)ccc1Br [LFM-A13] (first compound 1 µM, partner dose 2 µM) was tested. Which cell count did it give?
A: 93.3%

Q: For O=C(/C=C/c1cccnc1)NCCCCC1CCN(C(=O)c2ccccc2)CC1 + C/C(O)=C(\C#N)C(=O)Nc1cc(Br)ccc1Br [LFM-A13] (first compound 0.01 µM, partner dose 2 µM), which cell count is on record?
A: 51.8%
